# Source: the supplement of paper PMC8728848
# Some of the results follow.
# B1: Morniga (Morus nigra) (protein)
# chain: MAGTSTNTQTTGTSQTVEVGLWGGPGGNAWDDGSYTGIREINLSHGDAIGAFSVIYDLNGQPFTGPTHPGNEPSFKTVKITLDFPNEFLVSVSGYTGVLPRLATGKDVIRSLTFKTNKKTYGPYGKEEGTPFSLPIENGLIVGFKGRSGFVVDAIGVHLS
# Key:
# Test in all cases: glycan array binding signal (z-score within array); higher = stronger binding
# Details in all cases: glycan notation: IUPAC condensed, linker removed
# [1] = target: Fuc(a1-2)Gal
# Method in brief: (§1)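 The binding signal is a Z-score computed within each array and averaged over linkers. Arrays of the same protein sequence at different concentrations or buffers were also averaged together. Data originate from 3228 arrays in the Consortium for Functional Glycomics database, kept only where the protein sequence was available.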
# [2] = target: Fuc(a1-2)Gal(b1-3)GalNAc
# Method in brief: as §1
# [3] = target: Fuc(a1-2)Gal(b1-3)GalNAc(a1-3)[Fuc(a1-2)]Gal(b1-4)Glc
# Method in brief: as §1
# [4] = target: Fuc(a1-2)Gal(b1-3)GalNAc(a1-3)[Fuc(a1-2)]Gal(b1-4)GlcNAc
# Method in brief: as §1
# [5] = target: Fuc(a1-2)Gal(b1-3)GalNAc(b1-3)Gal
# Method in brief: as §1
# [6] = target: Fuc(a1-2)Gal(b1-3)GalNAc(b1-3)Gal(a1-4)Gal(b1-4)Glc
# Method in brief: as §1
# [7] = target: Fuc(a1-2)Gal(b1-3)GalNAc(b1-4)[Neu5Ac(a2-3)]Gal(b1-4)Glc
# Method in brief: as §1
# [8] = target: Fuc(a1-2)Gal(b1-3)GlcNAc
# Method in brief: as §1
# [9] = target: Fuc(a1-2)Gal(b1-3)GlcNAc(b1-2)Man(a1-3)[Fuc(a1-2)Gal(b1-3)GlcNAc(b1-2)Man(a1-6)]Man(b1-4)GlcNAc(b1-4)GlcNAc
# Method in brief: as §1
# [10] = target: Fuc(a1-2)Gal(b1-3)GlcNAc(b1-2)Man(a1-3)[Fuc(a1-2)Gal(b1-3)GlcNAc(b1-2)Man(a1-6)]Man(b1-4)GlcNAc(b1-4)[Fuc(a1-6)]GlcNAc
# Method in brief: as §1
# [11] = target: Fuc(a1-2)Gal(b1-3)GlcNAc(b1-3)Gal(b1-4)Glc
# Method in brief: as §1
# [12] = target: Fuc(a1-2)Gal(b1-3)GlcNAc(b1-3)GalNAc
# Method in brief: as §1
# [13] = target: Fuc(a1-2)Gal(b1-3)GlcNAc(b1-3)[Fuc(a1-2)Gal(b1-3)GlcNAc(b1-6)]GalNAc
# Method in brief: as §1
# [14] = target: Fuc(a1-2)Gal(b1-3)GlcNAc(b1-3)[Fuc(a1-3)[Gal(b1-4)]GlcNAc(b1-6)]Gal(b1-4)Glc
# Method in brief: as §1
# [15] = target: Fuc(a1-2)Gal(b1-3)GlcNAc(b1-3)[Gal(b1-4)GlcNAc(b1-6)]Gal(b1-4)Glc
# Method in brief: as §1
# [16] = target: Fuc(a1-2)Gal(b1-3)GlcNAc(b1-3)[Neu5Ac(a2-6)Gal(b1-4)GlcNAc(b1-6)]Gal(b1-4)Glc
# Method in brief: as §1
# [17] = target: Fuc(a1-2)Gal(b1-3)GlcNAc6S
# Method in brief: as §1
# [18] = target: Fuc(a1-2)Gal(b1-3)[Fuc(a1-4)]GlcNAc
# Method in brief: as §1
# [19] = target: Fuc(a1-2)Gal(b1-3)[Fuc(a1-4)]GlcNAc(b1-2)Man(a1-3)[Fuc(a1-2)Gal(b1-3)[Fuc(a1-4)]GlcNAc(b1-2)Man(a1-6)]Man(b1-4)GlcNAc(b1-4)GlcNAc
# Method in brief: as §1
# [20] = target: Fuc(a1-2)Gal(b1-3)[Fuc(a1-4)]GlcNAc(b1-2)Man(a1-6)[Fuc(a1-2)Gal(b1-3)[Fuc(a1-4)]GlcNAc(b1-2)Man(a1-3)]Man(b1-4)GlcNAc(b1-4)[Fuc(a1-6)]GlcNAc
# Method in brief: as §1
# [21] = target: Fuc(a1-2)Gal(b1-3)[Fuc(a1-4)]GlcNAc(b1-3)[Fuc(a1-3)[Gal(b1-4)]GlcNAc(b1-6)]Gal(b1-4)Glc
# Method in brief: as §1
# [22] = target: Fuc(a1-2)Gal(b1-3)[Fuc(a1-4)]GlcNAc(b1-3)[Gal(b1-4)GlcNAc(b1-6)]Gal(b1-4)Glc
# Method in brief: as §1
# [23] = target: Fuc(a1-2)Gal(b1-4)Glc
# Method in brief: as §1
# [24] = target: Fuc(a1-2)Gal(b1-4)Glc6S
# Method in brief: as §1
# [25] = target: Fuc(a1-2)Gal(b1-4)GlcNAc
# Method in brief: as §1
# [26] = target: Fuc(a1-2)Gal(b1-4)GlcNAc(b1-2)Man
# Method in brief: as §1
# [27] = target: Fuc(a1-2)Gal(b1-4)GlcNAc(b1-2)Man(a1-3)[Fuc(a1-2)Gal(b1-4)GlcNAc(b1-2)Man(a1-6)]Man(b1-4)GlcNAc(b1-4)GlcNAc
# Method in brief: as §1
# [28] = target: Fuc(a1-2)Gal(b1-4)GlcNAc(b1-2)Man(a1-3)[Fuc(a1-2)Gal(b1-4)GlcNAc(b1-2)Man(a1-6)]Man(b1-4)GlcNAc(b1-4)[Fuc(a1-6)]GlcNAc
# Method in brief: as §1
# [29] = target: Fuc(a1-2)Gal(b1-4)GlcNAc(b1-2)[Fuc(a1-2)Gal(b1-4)GlcNAc(b1-4)]Man(a1-3)[Fuc(a1-2)Gal(b1-4)GlcNAc(b1-2)Man(a1-6)]Man(b1-4)GlcNAc(b1-4)GlcNAc
# Method in brief: as §1
# [30] = target: Fuc(a1-2)Gal(b1-4)GlcNAc(b1-3)Gal(b1-4)GlcNAc
# Method in brief: as §1
binder,measurement,setting,value
B1,glycan array binding signal (z-score),[1],-0.331
same,glycan array binding signal (z-score),[2],-0.283
same,glycan array binding signal (z-score),[3],-0.335
same,glycan array binding signal (z-score),[4],-0.33
same,glycan array binding signal (z-score),[5],-0.345
same,glycan array binding signal (z-score),[6],-0.347
same,glycan array binding signal (z-score),[7],-0.335
same,glycan array binding signal (z-score),[8],-0.339
same,glycan array binding signal (z-score),[9],0.037
same,glycan array binding signal (z-score),[10],-0.173
same,glycan array binding signal (z-score),[11],-0.338
same,glycan array binding signal (z-score),[12],-0.32
same,glycan array binding signal (z-score),[13],-0.326
same,glycan array binding signal (z-score),[14],-0.342
same,glycan array binding signal (z-score),[15],-0.337
same,glycan array binding signal (z-score),[16],-0.335
same,glycan array binding signal (z-score),[17],-0.321
same,glycan array binding signal (z-score),[18],-0.278
same,glycan array binding signal (z-score),[19],-0.19
same,glycan array binding signal (z-score),[20],-0.228
same,glycan array binding signal (z-score),[21],-0.325
same,glycan array binding signal (z-score),[22],-0.269
same,glycan array binding signal (z-score),[23],-0.341
same,glycan array binding signal (z-score),[24],-0.332
same,glycan array binding signal (z-score),[25],-0.333
same,glycan array binding signal (z-score),[26],-0.327
same,glycan array binding signal (z-score),[27],2.24
same,glycan array binding signal (z-score),[28],0.412
same,glycan array binding signal (z-score),[29],-0.149
same,glycan array binding signal (z-score),[30],-0.346
